Data taken from article PMC6919601, “Identification of Plasmodium dipeptidyl aminopeptidase allosteric inhibitors by high throughput screening” (PLoS ONE, 2019).
Among all 110,000 compounds or so, about 230 (0.21%) showed an effect of 50% or more. Some of the results follow.

These molecules were tested against DPAP1 (Plasmodium falciparum, UniProt Q8IIJ9) (assay: primary screen, percent inhibition; read by cleavage of a fluorogenic dipeptide substrate; higher = more effect of the substance).
Parameters: species or system P. falciparum D10 trophozoite lysates; single well
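Also: 30 min substrate incubation versus DMSO and 10 µM JCP410 controls.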

Sequence of DPAP1 (Q8IIJ9 whole entry, looked up): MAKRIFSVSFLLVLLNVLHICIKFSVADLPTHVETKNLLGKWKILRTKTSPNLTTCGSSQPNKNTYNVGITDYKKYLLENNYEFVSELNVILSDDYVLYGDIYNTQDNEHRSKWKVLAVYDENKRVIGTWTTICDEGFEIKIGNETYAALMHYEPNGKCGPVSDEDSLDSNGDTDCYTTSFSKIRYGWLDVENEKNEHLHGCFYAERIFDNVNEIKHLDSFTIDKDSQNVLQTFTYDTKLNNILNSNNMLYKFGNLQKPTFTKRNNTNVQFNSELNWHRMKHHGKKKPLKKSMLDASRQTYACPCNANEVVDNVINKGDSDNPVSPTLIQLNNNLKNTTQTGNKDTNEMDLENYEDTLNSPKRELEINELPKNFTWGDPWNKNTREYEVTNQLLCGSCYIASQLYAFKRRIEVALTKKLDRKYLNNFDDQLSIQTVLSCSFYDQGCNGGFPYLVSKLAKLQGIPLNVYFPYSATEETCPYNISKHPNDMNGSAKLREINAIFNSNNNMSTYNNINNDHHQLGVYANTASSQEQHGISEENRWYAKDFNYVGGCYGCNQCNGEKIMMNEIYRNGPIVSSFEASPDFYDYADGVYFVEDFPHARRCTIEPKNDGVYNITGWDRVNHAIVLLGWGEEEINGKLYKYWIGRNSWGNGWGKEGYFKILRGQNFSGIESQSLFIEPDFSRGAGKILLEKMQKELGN

Row | Structure (SMILES) | % Inhibition @ 10 uM [%]
1 | FC(F)(F)c1cc(-c2cccs2)nc2nc(S)nn12 | 1.42
2 | CCS(=O)(=O)c1nc(S(=O)(=O)c2ccc(C)cc2)c(N2CCCC(C)C2)s1 (stereo not shown) | -5.89
3 | CN1CCN(Cc2c(F)cccc2Cl)CC1 | -3.79
4 | O=C(NC1CCCCCC1)c1cccnc1Cl | -1.12
5 | COc1nc(-c2ccccc2)nc(C)c1C | 0.163
6 | CCOc1ccc(C(=O)Nc2ccccc2OC)cc1 | -1.07
7 | COc1ccc(C=C2C(=O)c3ccccc3C2=O)c(C)c1 | 1.19
8 | Cc1ccc(SCc2cc(O)nc(Nc3nc4ccccc4o3)n2)cc1 | 5.55
9 | COc1ccc2cc3cc(C(=O)NCCc4ccc(OC)c(OC)c4)oc3nc2c1 | 3.53
10 | CCc1ccccc1NC(=O)COc1ccc(Cl)cc1Cl | -5.41
11 | CCOc1ccccc1OCc1nn2c(-c3cc(OC)c(OC)c(OC)c3)nnc2s1 | -2.21
12 | Cc1nn(CCCC(=O)NCCCN2CCCC2=O)c(=O)c2c1sc1ccccc12 | -5.27
13 | Cc1cc(NC(=O)CSc2nc3c(c(=O)n2C)SC(C)C3)no1 (stereo not shown) | 0.205
14 | COc1cc2nc(SCc3ccc(Cl)cc3)n3nc(C)nc3c2cc1OC | -2.29
15 | CCOC(=O)c1ccc(S(=O)(=O)N2CCN(CCC#N)CC2)cc1 | -1.82
16 | CCN1C(=O)/C(=C\c2cc3c(cc2OC)OCO3)S/C1=N\c1ccc(N2CCOCC2)cc1 | 38.5
17 | Cc1nc2cc(NC(=O)N3CCN(c4ccccc4)CC3)ccc2o1 | -6.36
18 | COc1ccc(C)cc1N(CC(=O)N1CCCCCC1)S(=O)(=O)c1ccc(C)cc1 | 0.956
19 | CC1=C(C#N)C(C)C2=C(O)CC(C)(C)CC2=N1 (stereo not shown) | -4.06
20 | CCSc1c(O)cnn(C2CCCCC2)c1=O | -2.36
21 | COc1ccc2c(c1)O[C@H](c1ccccc1)[C@H](O)C2 | -14.6
22 | CN1C(C(=O)N2CCCCC2)=CC(c2cccs2)=NS1(=O)=O | 2.32

Row | Structure (SMILES) | % Inhibition @ 10 uM [%]
23 | CC(=O)c1ccc(NC(=O)Cc2cccs2)cc1 | 4
24 | Cc1ccc(CN2CCN(Cc3ccncc3)CC2)cc1 | -3.37
25 | CCCN1CCC(NCCc2ccccc2Cl)CC1 | 5.03
26 | CCCCC(NC(=O)C(Cc1c(F)cccc1F)NC(=O)c1ccc(-c2ccccc2Cl)cc1)C(=O)c1nc2ccccc2o1 (stereo not shown) | 2.87
27 | CCOC(=O)N1CCN(c2cc(C)nc3c(-c4ccc(Cl)cc4)c(C)nn23)CC1 | -2.72
28 | CCc1nn(CC(=O)N2CCN(C)CC2)c(=O)c2cc3occc3n12 | 4.55
29 | CCCN(CCC)c1nc(Cl)nc(NCCN2CCOCC2)n1 | -0.85
30 | Cc1c(C)n(C)c2ccc(C(=O)NC(C)c3ccccc3)cc12 (stereo not shown) | 5.88
31 | CCN(CC)CCCNC(=O)C1CCN(c2nnc(C)c3c(C)n(-c4ccccc4)nc23)CC1 | -2.68
32 | COc1cc(C2C(C#N)=C(N)OC3=C2C(=O)CC(C)(C)C3)ccc1OCc1ccc(F)cc1 (stereo not shown) | -6.18
33 | Nn1cnn2c(SCC(=O)Nc3ccccn3)nnc12 | -5.36
34 | CC(=O)N1CCC2(CC1)OC(=O)C(C)=C2C(=O)NCCCN1CC(C)CC(C)C1 (stereo not shown) | -4.96
35 | O=C(c1nnc(Cc2ccc(Cl)cc2)o1)N1CCc2ccccc2C1 | -2.19
36 | CCc1sc(NC(=O)c2c(-c3ccccc3)noc2C)nc1-c1ccccc1 | -8.79
37 | Cc1cc(O)nc2cc(O)ccc12 | 2.34
38 | Cc1ccccc1-c1nnc2[nH]c(=O)n(C)c(=O)c2n1 | 0.569
39 | CCOC(=O)c1c(C)n(C)c2ccc(OCC(O)Cn3nnc4ccccc43)cc12 (stereo not shown) | 0.415
40 | CC(CNC(=O)CCn1ccc2cc(S(=O)(=O)N3CCCC3)ccc21)c1ccccc1 (stereo not shown) | -5.15
41 | CCCc1[nH]nc2c1C(c1ccccc1F)C(C#N)=C(N)O2 (stereo not shown) | 1.08
42 | COc1cccc(OC)c1C(=O)Nc1cc(C)cc(C)c1 | 2.22
43 | CCOc1cc(-c2ccc3c(c2)OCO3)cc(=O)c2c(C)oc(C)c12 | -1.6
44 | Cc1cc(C)cc(C(=O)NCCSc2c(C)[nH]c3ccccc23)c1 | 1.94

Row | Structure (SMILES) | % Inhibition @ 10 uM [%]
45 | Cn1c(=O)c2c(nc(SCC(N)=O)n2Cc2ccccc2Cl)n(C)c1=O | 0.777
46 | COc1ccc(CCCC(=O)Nc2cccc(Cl)c2)cc1 | 6.37
47 | O=C(NC(Cc1ccccc1)C(=O)O)OCc1ccccc1 (stereo not shown) | 0.487
48 | Cn1ncc2c(O)ncnc21 | -0.326
49 | O=C(O)c1ccc(C#Cc2ccccc2)o1 | -4.01
50 | OCCNCc1cc(Cl)ccc1OCc1ccc(F)cc1 | 4.11
51 | CCc1ccc2c3c(c(C)[nH]c13)CCN1C(=O)OC(C)(C)C21C (stereo not shown) | -1.24
52 | CC(C)C[C@H](NC(=O)OCc1ccccc1)C(=O)NCC(=O)CN(Cc1ccco1)C(=O)OC(C)(C)C | -7.36
53 | CC(=O)N1CCN(c2nc(Nc3ccccc3C(=O)c3ccccc3)nc(OC(C(F)(F)F)C(F)(F)F)n2)CC1 | 9.37
54 | O=C(C(NS(=O)(=O)c1cccc2nsnc12)c1ccccc1)N1CCN(C2CCCCC2)CC1 (stereo not shown) | 1.79
55 | O=C(CC1(O)C(=O)Nc2ccccc21)c1ccc(Br)s1 (stereo not shown) | -0.884
56 | COc1cccc(C2C3=C(Nc4ncnn42)c2ccccc2OC3c2cccc(F)c2)c1 (stereo not shown) | -1.62
57 | CCCCCC1C(O)CC(c2ccccc2)N(C)C1c1ccccc1 (stereo not shown) | -4.18
58 | CCOC(=O)c1c(CC(C)C)csc1NC(=O)c1ccc(C)cc1 | -5.9
59 | NCC1(c2ccc3c(c2)OCCO3)CCOCC1 | -2.97
60 | COc1ccc(/C=C2\SC(Nc3ccccc3Cl)=NC2=O)c(OC)c1 | 6.51
61 | CC(C)N(Cc1cccs1)C(=O)[C@H]1[C@@H]2C[C@@H]3[C@H]1C(=O)O[C@@H]3C2 | 5.35
62 | CC1=C(C(=O)Nc2cccc(C)n2)C(c2ccccc2C(F)(F)F)C2=C(O)CCCC2=N1 (stereo not shown) | -0.661
63 | COc1ccc(OCCCn2cccc2/C=C2/C(=N)N3OC(C)=CC3=NC2=O)cc1 | -5.1
64 | COc1cc(OC)c(OC)cc1NC(=O)CC1COc2ccccc2O1 (stereo not shown) | 7.74
